# In the supplement of paper PMC8183993:
# Several values for one entry are separate records, joined by “and”; a condition that tells them apart may be missing. Equal entries are not always repeated. Structures can show the parent of a compound that is named as a salt. ± gives the standard deviation of the averaged measurements. In all, about 3,100 compounds were measured (“mean cytoplasmic OPP incorporation (global translation) relative to DMSO”: median about 100, lowest 2% from about 56 on). The list shows a part of the results.
# Test system: U2OS
# Assay: mean cytoplasmic OPP incorporation (global translation) relative to DMSO (% of DMSO); higher = more protein synthesis
# Settings: 10 µM; 24 h
# Procedure: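 Primary image-based screen in U2OS cells: compounds at 10 uM for 24 h, then a 1 h o-propargyl-puromycin (OPP) pulse, click labelling, and high-throughput microscopy. Mean cytoplasmic OPP intensity and nuclei count were normalised to DMSO wells within each plate (DMSO = 100) and averaged over triplicate plates.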
row,Compound,mean cytoplasmic OPP incorporation
1,CC(=O)Nc1nc2c(Oc3cc(-c4ccc(C(F)(F)F)cc4)ncn3)cccc2s1,102
2,N[C@@H](Cc1c[nH]c2ccc(O)cc12)C(=O)O [5-hydroxytryptophan (5-HTP)],106
3,CN1C[C@@H]2C[C@H]1CN2c1cc2c(cc1F)c(=O)c(C(=O)O)cn2C1CC1 [Danofloxacin Mesylate],101
4,CC(C)n1nc(-c2ccc3oc(N)nc3c2)c2c(N)ncnc21,53.5 ± 16
5,COC(=O)C1=C(C)NC(C)=C(C(=O)NCCCN2CCC(c3ccccc3)(c3ccccc3)CC2)C1c1ccc([N+](=O)[O-])cc1 (configuration not stated),99.9
6,Oc1ccc(OC2CCCCO2)cc1 (configuration not stated) [Deoxyarbutin],96.2
7,Nc1cccc2c1C(=O)N(C1CCC(=O)NC1=O)C2=O (configuration not stated) [Pomalidomide],102
8,Cc1ccc(CC2(O)CCN(CCOc3ccc(O)cc3)CC2)cc1,108
9,N=C(N)NC(=O)Cc1c(Cl)cccc1Cl [Guanfacine hydrochloride],105 ± 3.8
10,O=C1Nc2ccccc2/C1=C1/Nc2ccccc2C1=O [Indirubin],106
11,O=C(O)C(O)Cc1ccc(O)c(O)c1 (configuration not stated) [Sodium Danshensu],92
12,C[n+]1cc2c3c(ccc2c2ccc4cc5c(cc4c21)OCO5)OCO3 [Sanguinarine chloride],42.4
13,Cc1cc(C)c(Nc2ccnc(Nc3ccc(C#N)cc3)n2)c(C)c1 [Dapivirine],121
14,Clc1ccc(CSC(Cn2ccnc2)c2ccc(Cl)cc2Cl)cc1 (configuration not stated) [Sulconazole nitrate],93.7
15,O=C(c1ccc(Nc2nccc(-c3cc4ccccc4s3)n2)cc1)N1CCC(N2CCCC2)CC1,107
16,Nc1ncnc2c1ncn2[C@@H]1O[C@H](CO)[C@@H](O)[C@H]1O [Adenosine (Adenocard)],97.3
17,O=C(/C=C/c1ccccc1)NC(NC(=S)Nc1cccc2cccnc12)C(Cl)(Cl)Cl (configuration not stated) [Salubrinal],108
18,CC(=O)O[C@@]12CO[C@@H]1C[C@H](O)[C@@]1(C)C(=O)[C@H](O)C3=C(C)[C@@H](OC(=O)[C@H](O)[C@@H](NC(=O)OC(C)(C)C)c4ccccc4)C[C@@](O)([C@@H](OC(=O)c4ccccc4)[C@H]21)C3(C)C [Docetaxel],81.3
19,CC(=O)O[C@@]12CO[C@@H]1C[C@H](O)[C@@]1(C)C(=O)[C@H](O)C3=C(C)[C@@H](OC(=O)[C@H](O)[C@@H](NC(=O)OC(C)(C)C)c4ccccc4)C[C@@](O)([C@@H](OC(=O)c4ccccc4)[C@H]21)C3(C)C [Docetaxel (Taxotere)],92.7
20,Nc1ccn([C@@H]2O[C@H](CO)[C@@H](O)C2(F)F)c(=O)n1 [Gemcitabine],71.7
21,Nc1ccn([C@@H]2O[C@H](CO)[C@@H](O)C2(F)F)c(=O)n1 [Gemcitabine HCl (Gemzar)],72.9
22,O=C(NCCCN1CCC2(CC1)OCc1ccccc12)[C@H]1CCCN1Cc1ccccc1,108
23,COc1ccccc1N1CCN(CCN(C(=O)C2CCCCC2)c2ccccn2)CC1,118
24,CN1C(=O)CC(c2ccccc2)C1=O (configuration not stated) [Phensuximide],105

row,Compound,mean cytoplasmic OPP incorporation
1,CN(C)CCN(Cc1ccccc1)c1ccccn1 [Tripelennamine hydrochloride],99.5
2,CC1CNc2c(cccc2S(=O)(=O)N[C@@H](CCCNC(=N)N)C(=O)N2CC[C@@H](C)C[C@@H]2C(=O)O)C1 (some centres not stated) [Argatroban],100 ± 6.7
3,CO[C@H]1C[C@@H]2CC[C@@H](C)[C@@](O)(O2)C(=O)C(=O)N2CCCC[C@H]2C(=O)O[C@H]([C@H](C)C[C@@H]2CC[C@@H](OCCO)[C@H](OC)C2)CC(=O)[C@H](C)/C=C(\C)[C@@H](O)[C@@H](OC)C(=O)[C@H](C)C[C@H](C)/C=C/C=C/C=C/1C [Everolimus (RAD001)],94.16 ± 0.21
4,Fc1ccc(Cl)cc1-c1nc(Nc2ccncc2)c2nccnc2n1,99.7
5,O=C(O)c1ccc(-c2ccc3cc(O)c(C45CC6CC(CC(C6)C4)C5)cc3c2)cc1,98.8
6,"Cc1c(C2CCN(CCc3ccccc3)CC2)noc1-c1ccc(Cl)cc1 [L-741,742 hydrochloride]",123
7,CC(C)c1ccc(NC(=O)Cn2cnc3c2c(=O)n(C)c(=O)n3C)cc1,102
8,C[C@H](NC(=O)/C(C#N)=C/c1cccc(Br)n1)c1ccccc1,56.2 ± 5.9
9,CCCN(CCC)S(=O)(=O)c1ccc(C(=O)O)cc1 [Probenecid],98.7
10,CCNC(=O)Nc1ccc(-c2nc3c(c(N4CCOC[C@@H]4C)n2)CCN(C2COC2)C3)cc1,63.5 ± 2.8
11,C[C@]12CC[C@@H]3c4ccc(O)cc4CC[C@H]3[C@@H]1CC[C@@H]2O [Estradiol-17 beta],101
12,C[C@]12CC[C@@H]3c4ccc(O)cc4CC[C@H]3[C@@H]1CC[C@@H]2O [17b-Estradiol],95.7
13,C[C@]12CC[C@@H]3c4ccc(O)cc4CC[C@H]3[C@@H]1CC[C@@H]2O [Estradiol],100
14,Cc1c(NC(=O)N2CCOCC2)ccc2c1c1ccccc1n2C(C)C,101
15,NC(Cc1cc(I)c(Oc2cc(I)c(O)c(I)c2)c(I)c1)C(=O)O (configuration not stated) [Thyroxine (L)],106
16,OC(CN1CCC(Cc2ccc(F)cc2)CC1)c1ccc(Cl)cc1 (configuration not stated) [Eliprodil],97.1
17,CN(C)CC/C=C1/c2ccccc2Sc2ccc(Cl)cc21 [Chlorprothixene hydrochloride],110
18,CCCS(=O)(=O)c1nc(NC2CC2)cc(-c2ccc3c(ccn3C3CC(C)(C)NC(C)(C)C3)c2)n1,21.1
19,CC(=O)[C@H]1CC[C@H]2[C@@H]3CCC4=CC(=O)CC[C@]4(C)[C@H]3CC[C@]12C [Progesterone (Prometrium)],106
20,CC(=O)[C@H]1CC[C@H]2[C@@H]3CCC4=CC(=O)CC[C@]4(C)[C@H]3CC[C@]12C [Progesterone],95.1 ± 0.97
21,Cn1cc(CNCC2CCN(c3ncc(C(=O)NO)cn3)CC2)c2ccccc21,59.7
22,CCOC(=O)CCNc1cc(N2CCc3ccccc3CC2)nc(-c2ccccn2)n1,95.7 and 90.7
23,COc1ccc2[nH]c([S+]([O-])Cc3ncc(C)c(OC)c3C)nc2n1 (configuration not stated) [Tenatoprazole],109
24,CN(C)CCOC(c1ccccc1)c1ccccc1 [Diphenhydramine hydrochloride],106

row,Compound,mean cytoplasmic OPP incorporation
1,N#Cc1ccc(C2CCCc3cncn32)cc1 (configuration not stated) [Fadrozole hydrochloride],99
2,COC(=O)C1=CO[C@@H](O[C@@H]2O[C@H](CO)[C@@H](O)[C@H](O)[C@H]2O)[C@@H]2C(CO)=CC[C@H]12 [Geniposide],102
3,Cc1onc(-c2ccccc2Cl)c1C(=O)N[C@@H]1C(=O)N2[C@@H]1SC(C)(C)[C@@H]2C(=O)O [Cloxacillin sodium (Cloxacap)],102
4,Cc1onc(-c2ccccc2Cl)c1C(=O)N[C@@H]1C(=O)N2[C@@H]1SC(C)(C)[C@@H]2C(=O)O [Cloxacillin sodium salt],89.9
5,N[C@@H](C(=O)N[C@@H]1C(=O)N2C(C(=O)O)=C(Cl)CC[C@H]12)c1ccccc1 [Loracarbef],97.4
6,COc1ccc(Cn2ccc3ccc(C(=O)NO)cc32)cc1,123
7,C#Cc1cccc(Nc2ncnc3cc(OCCOC)c(OCCOC)cc23)c1 [Erlotinib],91.9
8,NC(=O)c1cnc(N[C@@H]2CCCC[C@@H]2N)nc1Nc1cccc(-n2nccn2)c1,77.5 ± 3.4
9,NS(=O)(=O)c1cc2c(cc1Cl)NC(C(Cl)Cl)NS2(=O)=O (configuration not stated) [Trichlormethiazide],92.1
10,CN[C@@H]1[C@H](O)[C@H](NC)[C@H]2O[C@@]3(O)C(=O)C[C@@H](C)O[C@H]3O[C@@H]2[C@H]1O [Spectinomycin dihydrochloride],94.4
11,"CCCCCCOC(=O)NC(=N)c1ccc(NCc2nc3cc(C(=O)N(CCC(=O)OCC)c4ccccn4)ccc3n2C)cc1 [BIBR-1048 (Dabigatran etexilate, Pradaxa)]",109
12,CC(C)C[C@@H](C(=O)N[C@H](C(=O)OC1CCCC1)c1ccccc1)[C@H](O)C(=O)NO,97.6
13,CC(C)C[C@@H](C(=O)N[C@H](C(=O)OC1CCCC1)c1ccccc1)[C@H](O)C(=O)NO [Tosedostat (CHR2797)],103
14,COc1ccc(O)cc1 [Mequinol],101
15,CCCCCCCCCCCCCCCCCCCCCCO [Docosanol (Abreva)],104
16,O=[N+]([O-])c1ccc(Oc2ccc(Br)cc2)c(C(O)P(=O)(O)O)c1 (configuration not stated),95.9
17,Cc1c(-c2ccccc2)oc2c(C(=O)OCCN3CCCCC3)cccc2c1=O [Flavoxate hydrochloride],94.6
18,CN[C@@H]1[C@@H](O[C@H]2O[C@H](CO)[C@@H](N)[C@H](O)[C@H]2O)OC2C[C@@H](N)[C@@H](O[C@H]3[C@H](O)[C@@H](O)[C@H](N)C[C@@H]3N)OC2[C@@H]1O (some centres not stated) [Apramycin],105
19,CCN(CC)CCOC(=O)c1cc(Cl)c(N)cc1OC [SDZ 205-557 hydrochloride],98.4
20,C=C1/C(=C\C=C2/CCC[C@]3(C)[C@@H]([C@H](C)CCCC(C)C)CC[C@@H]23)C[C@@H](O)C[C@@H]1O [Alfacalcidol],93.9
21,Cc1ccc2c(c1)c1c3n2CCNC3CCC1 (configuration not stated) [Pirlindole mesylate],108 ± 3.8
22,CC(=O)N[C@@H](Cc1c[nH]c2ccccc12)C(=O)OCc1cc(C(F)(F)F)cc(C(F)(F)F)c1,100
23,CCC[C@@H]1C[C@@H](C(=O)N[C@@H]([C@H]2O[C@H](SC)[C@H](O)[C@@H](O)[C@H]2O)[C@H](C)Cl)N(C)C1 [Clindamycin hydrochloride],104
24,CCC[C@@H]1C[C@@H](C(=O)N[C@@H]([C@H]2O[C@H](SC)[C@H](O)[C@@H](O)[C@H]2O)[C@H](C)Cl)N(C)C1 [Clindamycin HCl (Dalacin)],105
